Laboratory results published in the supplement of paper PMC4967469.
IC50 is the fitted dose that halves viability relative to control wells, and lower means more sensitive; a limit (>, <) means that the fit lies beyond the doses tested. AUC, from the same fit, is the share of area under the viability curve across the 256-fold dose range; values near 1 show little effect. For part of these data: A top dose marked as inferred comes from the curve model; the source does not state it. For part of these data: Drugs with an entry number were screened twice under separate entries, and the two screens often disagree.

Experiments:
Assay in all cases: Viability of human cancer cell lines after 72 h of drug (GDSC screen)
GNF-2 = compound: NC(=O)c1cccc(-c2cc(Nc3ccc(OC(F)(F)F)cc3)ncn2)c1 [GNF-2]; conditions: top dose 1.28 µM; top dose inferred
Protocol: (§1)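 Human cancer cell lines in 384-well plates, medium with 10% serum, drug for 72 h over a 256-fold dose range (nine 2-fold or five 4-fold steps up to the top dose). Adherent lines were fixed and stained with the nucleic acid dye Syto60, suspension lines read with resazurin; signal relative to control wells, capped at 0 and 100%. One two-parameter sigmoid per drug and line, fitted in a mixed model over all curves with the slope shared within a line.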

AUY922 = compound: CCNC(=O)c1noc(-c2cc(C(C)C)c(O)cc2O)c1-c1ccc(CN2CCOCC2)cc1 [AUY922]; conditions: top dose 0.256 µM; top dose inferred
Protocol: as §1

T0901317 = compound: O=S(=O)(c1ccccc1)N(CC(F)(F)F)c1ccc(C(O)(C(F)(F)F)C(F)(F)F)cc1 [T0901317]; conditions: top dose 10.24 µM; top dose inferred
Protocol: as §1

MP470 = compound: S=C(NCc1ccc2c(c1)OCO2)N1CCN(c2ncnc3c2oc2ccccc23)CC1 [MP470]; conditions: top dose 20 µM; top dose inferred
Protocol: as §1

Bicalutamide = compound: CC(O)(CS(=O)(=O)c1ccc(F)cc1)C(=O)Nc1ccc(C#N)c(C(F)(F)F)c1 [Bicalutamide]; conditions: top dose inferred
Protocol: as §1

TW-37 = compound: CC(C)c1ccccc1Cc1cc(C(=O)Nc2ccc(S(=O)(=O)c3ccccc3C(C)(C)C)cc2)c(O)c(O)c1O [TW-37]; conditions: top dose 5 µM
Protocol: as §1

KIN001-270 = compound: Cc1ccc(Nc2cc(-c3cccc(N4C(=O)c5ccccc5C4=O)c3)ncn2)cc1NS(C)(=O)=O [KIN001-270]; conditions: top dose 20 µM; top dose inferred
Protocol: as §1

Gemcitabine = compound: Nc1ccn([C@@H]2O[C@H](CO)[C@@H](O)C2(F)F)c(=O)n1 [Gemcitabine]; conditions: top dose 1.024 µM
Protocol: as §1

LFM-A13 = compound: C/C(O)=C(\C#N)C(=O)Nc1cc(Br)ccc1Br [LFM-A13]; conditions: top dose 16 µM; top dose inferred
Protocol: as §1

[1] = top dose 1.024 µM, screen: GDSC drug entry 150
[2] = top dose 10 µM, screen: GDSC drug entry 1502

Cell Line | AUC (GNF-2) | IC50 (GNF-2) | AUC (AUY922) | IC50 (AUY922) | AUC (T0901317) | IC50 (T0901317) | AUC (MP470) | IC50 (MP470) | AUC (Bicalutamide; [1]) | IC50 (Bicalutamide; [1]) | AUC (Bicalutamide; [2]) | IC50 (Bicalutamide; [2]) | AUC (TW-37) | IC50 (TW-37) | AUC (KIN001-270) | IC50 (KIN001-270) | AUC (Gemcitabine) | IC50 (Gemcitabine) | AUC (LFM-A13) | IC50 (LFM-A13)
MZ2-MEL (melanoma, adherent) | 0.967 | > 1.28 µM | 0.496 | 0.0156 µM | 0.983 | > 10.2 µM | 0.835 | 16.5 µM | 0.983 | > 1.02 µM | 0.933 | > 10 µM | 0.471 | 0.256 µM | 0.963 | > 20 µM | 0.399 | 0.0322 µM | 0.957 | > 16 µM
SNU-C2B (large intestine, adherent) | 0.979 | > 1.28 µM | 0.481 | 0.014 µM | 0.975 | > 10.2 µM | 0.921 | > 20 µM | 0.977 | > 1.02 µM | 0.944 | > 10 µM | 0.47 | 0.252 µM | 0.966 | > 20 µM | 0.872 | > 1.02 µM | 0.936 | > 16 µM
HA7-RCC (kidney, adherent) | 0.966 | > 1.28 µM | 0.695 | 0.06 µM | 0.984 | > 10.2 µM | 0.906 | > 20 µM | 0.98 | > 1.02 µM | 0.975 | > 10 µM | 0.444 | 0.216 µM | 0.935 | > 20 µM | 0.16 | 0.00503 µM | 0.937 | > 16 µM
OMC-1 (cervix, adherent) | 0.984 | > 1.28 µM | 0.451 | 0.0116 µM | 0.988 | > 10.2 µM | 0.957 | > 20 µM | 0.988 | > 1.02 µM | 0.972 | > 10 µM | 0.617 | 0.665 µM | 0.981 | > 20 µM | 0.72 | 0.278 µM | 0.979 | > 16 µM
LC-2-ad (lung adenocarcinoma, adherent) | 0.91 | > 1.28 µM | 0.397 | 0.00827 µM | 0.981 | > 10.2 µM | 0.973 | > 20 µM | 0.981 | > 1.02 µM | 0.978 | > 10 µM | 0.562 | 0.463 µM | 0.943 | > 20 µM | 0.039 | < 0.004 µM | 0.952 | > 16 µM
KALS-1 (glioma, adherent) | 0.969 | > 1.28 µM | 0.5 | 0.0161 µM | 0.978 | > 10.2 µM | 0.963 | > 20 µM | 0.957 | > 1.02 µM | 0.975 | > 10 µM | 0.49 | 0.29 µM | 0.97 | > 20 µM | 0.405 | 0.032 µM | 0.922 | > 16 µM
